{
  "source": "patent US20240226120A1",
  "about": "(priority 2020, published 2024)",
  "system": "HEK293 (human embryonic kidney) cells transfected with empty control vector (pCMV-3Tag-3a)",
  "assay": "BrdU incorporation colorimetric ELISA, cells transfected with empty control vector",
  "conditions": "control plasmid, 1 μM cannabinoid, 24 hours, not normalized to cell number (FIG. 2)",
  "data": [
    {"smiles": "C=C(C)[C@@H]1CCC(C)=C[C@H]1c1c(O)cc(CCCCC)cc1O", "note": "[Cannabidiol, 2-[(1R,6R)-3-Methyl-6-(1-methylethenyl)-2-cyclohexen-1-yl]-5-pentyl-1,3-benzenediol]", "values": [
      {"measurement": "incorporation of BrdU / cell proliferation", "value": "does not reduce cell proliferation"}
    ]}
  ]
}
